{"source": "paper PMC4336329", "about": "(PLoS ONE, 2015)", "note": "Screen size: about 310,000 compounds; about 2,200 (0.71%) showed an effect of 50% or more. Effects have a minus sign here. This is one part of the list."}
{"target": "human ether-à-go-go-related gene (hERG) potassium channel (human, UniProt Q12809)", "sequence (Q12809 whole entry, looked up)": "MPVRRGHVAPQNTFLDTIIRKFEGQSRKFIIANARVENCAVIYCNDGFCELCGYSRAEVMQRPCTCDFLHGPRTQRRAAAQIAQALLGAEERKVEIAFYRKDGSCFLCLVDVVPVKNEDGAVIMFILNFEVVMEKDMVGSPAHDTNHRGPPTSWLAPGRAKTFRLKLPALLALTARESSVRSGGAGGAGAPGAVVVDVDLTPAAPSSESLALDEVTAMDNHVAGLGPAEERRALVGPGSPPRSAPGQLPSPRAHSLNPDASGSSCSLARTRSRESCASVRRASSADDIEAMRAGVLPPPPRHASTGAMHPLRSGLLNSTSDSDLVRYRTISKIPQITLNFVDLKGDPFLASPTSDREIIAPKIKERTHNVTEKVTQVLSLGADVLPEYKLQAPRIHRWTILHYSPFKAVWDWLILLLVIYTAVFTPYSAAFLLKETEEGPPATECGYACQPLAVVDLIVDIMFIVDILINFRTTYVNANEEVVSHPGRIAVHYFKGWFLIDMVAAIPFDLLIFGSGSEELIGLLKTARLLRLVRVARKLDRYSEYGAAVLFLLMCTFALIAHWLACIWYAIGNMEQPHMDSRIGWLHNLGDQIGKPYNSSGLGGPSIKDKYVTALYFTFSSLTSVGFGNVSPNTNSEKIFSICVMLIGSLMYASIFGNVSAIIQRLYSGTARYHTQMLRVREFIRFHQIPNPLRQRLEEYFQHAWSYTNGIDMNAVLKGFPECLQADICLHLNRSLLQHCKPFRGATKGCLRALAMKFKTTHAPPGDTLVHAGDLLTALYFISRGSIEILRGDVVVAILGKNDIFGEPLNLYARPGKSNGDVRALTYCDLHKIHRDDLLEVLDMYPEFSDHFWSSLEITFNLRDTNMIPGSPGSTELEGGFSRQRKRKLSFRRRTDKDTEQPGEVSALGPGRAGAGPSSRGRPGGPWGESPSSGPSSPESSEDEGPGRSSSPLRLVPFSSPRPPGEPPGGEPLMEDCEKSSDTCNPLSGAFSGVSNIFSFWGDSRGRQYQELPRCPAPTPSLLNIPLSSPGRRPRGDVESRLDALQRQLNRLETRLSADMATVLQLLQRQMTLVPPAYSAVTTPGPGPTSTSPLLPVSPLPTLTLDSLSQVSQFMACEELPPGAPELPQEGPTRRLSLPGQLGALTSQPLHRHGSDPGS", "experiment": "primary screen, population patch clamp on CHO cells stably expressing hERG", "units": {"hERG current change (%, negative = inhibition) at 1uM": "%"}}
{"smiles": "O=C(COc1ccc(OCc2ccccc2)cc1)NN=C1CCCC1", "hERG current change (%, negative = inhibition) at 1uM": 18.2}
{"smiles": "CCOC(=O)CNC(=O)CSc1nc(C)cc(C)c1C#N", "hERG current change (%, negative = inhibition) at 1uM": 19}
{"smiles": "Oc1ccccc1/C=N/Nc1nc2ccccc2o1", "hERG current change (%, negative = inhibition) at 1uM": 11.8}
{"smiles": "COc1ccc(C(=O)NCC(=O)N/N=C/c2c(C)[nH]c3ccccc23)cc1OC", "hERG current change (%, negative = inhibition) at 1uM": 7.52}
{"smiles": "COC(=O)/C(C#N)=C/N(C)C", "hERG current change (%, negative = inhibition) at 1uM": 11.5}
{"smiles": "Cc1nc(SCCC(=O)O)c2cc(-c3ccccc3)sc2n1", "hERG current change (%, negative = inhibition) at 1uM": 6.67}
{"smiles": "CCOc1ccc(S(=O)(=O)N2CCN(C(=S)NCc3ccco3)CC2)cc1", "hERG current change (%, negative = inhibition) at 1uM": 1.75}
{"smiles": "O=[N+]([O-])c1cccc(/C([O-])=C(/C(=S)Nc2ccccc2)[n+]2ccccc2)c1", "hERG current change (%, negative = inhibition) at 1uM": 2.99}
{"smiles": "COC(=O)C1=C(c2cc3ccccc3o2)C[C@@H]2CC[C@H]1N2C(=O)NCc1ccc(C(F)(F)F)cc1", "hERG current change (%, negative = inhibition) at 1uM": 9.4}
{"smiles": "O=C(O)c1ccc(Oc2ccc(C(F)(F)F)cn2)cc1", "hERG current change (%, negative = inhibition) at 1uM": 8.5}
{"smiles": "Fc1ccc(N=Cc2ccc[nH]2)cc1", "hERG current change (%, negative = inhibition) at 1uM": 15.1}
{"smiles": "OC1(C#CCN2CCOCC2)CCCCC1", "hERG current change (%, negative = inhibition) at 1uM": 6.88}
{"smiles": "Cc1cccc(CCNS(=O)(=O)c2cc3c(cc2C)NC(=O)CO3)c1", "hERG current change (%, negative = inhibition) at 1uM": -13.3}
{"smiles": "Cc1ccc(S(=O)(=O)N2c3ccccc3CC2C)cc1", "note": "(centres unmarked)", "hERG current change (%, negative = inhibition) at 1uM": 20.3}
{"smiles": "O=C(Nc1ccc(Cl)cn1)c1ccccc1[N+](=O)[O-]", "hERG current change (%, negative = inhibition) at 1uM": 7.12}
{"smiles": "Cc1nn(S(=O)(=O)c2ccc(C(C)C)cc2)c(C)c1S(=O)(=O)N1CCOCC1", "hERG current change (%, negative = inhibition) at 1uM": 9.06}
{"smiles": "Cc1ccsc1C(=O)OCC(=O)NC1CCS(=O)(=O)C1", "note": "(centres unmarked)", "hERG current change (%, negative = inhibition) at 1uM": 9.72}
{"smiles": "COCCCNC(=O)CSC1=Nc2ccccc2C2=NC(c3ccccc3)C(=O)N12", "note": "(centres unmarked)", "hERG current change (%, negative = inhibition) at 1uM": 1.53}
{"smiles": "O=C(N/N=C/c1cccs1)c1cccc(NC(=O)c2ccccc2Cl)c1", "hERG current change (%, negative = inhibition) at 1uM": 5.36}
{"smiles": "CCCCn1c(=S)[nH]c2ccc(N3CCOCC3)cc2c1=O", "hERG current change (%, negative = inhibition) at 1uM": 8.71}
{"smiles": "Oc1ccc(C[C@@H]2CNC(=S)N2CCc2cc(C(F)(F)F)cc(C(F)(F)F)c2)cc1", "hERG current change (%, negative = inhibition) at 1uM": 11.9}
{"smiles": "CCN(CC)c1ccc(NC(=O)CSc2nc3ccccc3c(=O)n2-c2cc(S(=O)(=O)N(C)C)ccc2C)cc1", "hERG current change (%, negative = inhibition) at 1uM": 13.1}
{"smiles": "C=C(C)C1Cc2nc(N)nc(C)c2C1", "note": "(centres unmarked)", "hERG current change (%, negative = inhibition) at 1uM": 10.3}
{"smiles": "Cc1nc2c(C)cccn2c1/C(O)=C1\\C(=O)C(=O)N(CCN2CCOCC2)C1c1cccs1", "note": "(centres unmarked)", "hERG current change (%, negative = inhibition) at 1uM": 10.1}
{"smiles": "O=C(NC12CC3CC(CC(C3)C1)C2)C1CC(=O)N(c2ccccc2)C1", "note": "(centres unmarked)", "hERG current change (%, negative = inhibition) at 1uM": 10.4}
{"smiles": "Cc1cc(NC(=O)CSCCO)no1", "hERG current change (%, negative = inhibition) at 1uM": 14}
{"smiles": "CC(=O)N(CC1CCCO1)C1(C(=O)NC2CCCC2)CCCCC1", "note": "(centres unmarked)", "hERG current change (%, negative = inhibition) at 1uM": 10.8}
{"smiles": "COCCNc1c(-c2ccc(OC)cc2)nc2ccc(Cl)cn12", "hERG current change (%, negative = inhibition) at 1uM": -3.29}
{"smiles": "O=C(NNC(=S)Nc1ccc(F)cc1)C1[C@H]2CCCC[C@@H]12", "note": "(some centres unmarked)", "hERG current change (%, negative = inhibition) at 1uM": 7.01}
{"smiles": "CCOC(=O)c1cc(NC(=O)CNCC(c2ccccc2)N(C)C)cc(C(=O)OCC)c1.O=C(O)C(=O)O", "note": "(centres unmarked)", "hERG current change (%, negative = inhibition) at 1uM": -14.8}
{"smiles": "NS(=O)(=O)c1ccc(CCNC(=O)c2ccc([N+](=O)[O-])s2)cc1", "hERG current change (%, negative = inhibition) at 1uM": 8.69}
{"smiles": "O=C(NCCCC(=O)N1CCOCC1)c1cccnc1", "hERG current change (%, negative = inhibition) at 1uM": 10.3}
{"smiles": "CCOC(=O)N1CCN(Cc2ccc(O)c3ncccc23)CC1", "hERG current change (%, negative = inhibition) at 1uM": 5.54}
{"smiles": "CC(C)N(C(=O)CN1C(=O)NC2(CCCCCC2)C1=O)C(C)C", "hERG current change (%, negative = inhibition) at 1uM": 9.1}
{"smiles": "O=C(O)Cc1ccc(NC(=O)c2ccc3c(c2)C(=O)N(Cc2ccco2)C3=O)cc1", "hERG current change (%, negative = inhibition) at 1uM": 0.071}
{"smiles": "CS(=O)(=O)N(CC(=O)Nc1cccc(F)c1)Cc1ccccc1", "hERG current change (%, negative = inhibition) at 1uM": 20.1}
{"smiles": "ClCc1nc2ccccc2c2ccccc12", "hERG current change (%, negative = inhibition) at 1uM": 9.29}
{"smiles": "Cc1ccc(N=Nc2c(N)[nH]n3c(=O)cc(-c4ccccc4)nc23)cc1", "hERG current change (%, negative = inhibition) at 1uM": 10.6}
{"smiles": "Nc1ccc2c(c1)N1CCN=C1S2", "hERG current change (%, negative = inhibition) at 1uM": 20}
{"smiles": "CC1CCCN(c2nc3nonc3nc2N2CCCC(C)C2)C1", "note": "(centres unmarked)", "hERG current change (%, negative = inhibition) at 1uM": 9.07}
{"smiles": "Cc1onc(-c2ccccc2)c1C(=O)OCCOc1cccc(Cl)c1", "hERG current change (%, negative = inhibition) at 1uM": 0.232}
{"smiles": "COc1ccc(N(Cc2ccccc2)C(=O)c2ccccc2[N+](=O)[O-])cc1", "hERG current change (%, negative = inhibition) at 1uM": 5.87}
{"smiles": "CN1CCN(C(=O)C2=C[C@H](c3coc4ccccc4c3=O)C[C@H](OCCCCO)O2)CC1", "hERG current change (%, negative = inhibition) at 1uM": 0.174}
{"smiles": "Cc1nc2nc(C)c(CCC(=O)NCc3ccc4c(c3)OCO4)c(C)n2n1", "hERG current change (%, negative = inhibition) at 1uM": -7.73}
